In patent US20150218260A1 (Hoffmann-La Roche, published 2015):

T1: cynomolgus IL-2R α-subunit, monomeric, with AcTev cleavage site and Avi His tag (cynomolgus)
T1 construct: also called Cy IL-2R α
T1 chain: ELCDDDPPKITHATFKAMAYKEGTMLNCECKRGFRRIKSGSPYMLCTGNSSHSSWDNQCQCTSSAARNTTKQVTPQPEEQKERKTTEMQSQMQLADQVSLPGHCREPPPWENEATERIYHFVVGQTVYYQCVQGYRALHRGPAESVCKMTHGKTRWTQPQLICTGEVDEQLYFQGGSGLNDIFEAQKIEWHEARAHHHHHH

T2: murine IL-2R α-subunit, monomeric, with AcTev cleavage site and Avi His tag (mouse)
T2 construct: also called Mu IL-2R α
T2 chain: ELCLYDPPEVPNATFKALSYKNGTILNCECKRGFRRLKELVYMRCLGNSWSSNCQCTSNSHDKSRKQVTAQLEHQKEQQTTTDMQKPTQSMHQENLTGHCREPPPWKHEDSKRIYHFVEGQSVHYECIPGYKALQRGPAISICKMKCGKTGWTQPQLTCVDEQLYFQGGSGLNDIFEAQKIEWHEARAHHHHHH

T3: human IL-2R α-subunit, monomeric, with AcTev cleavage site and Avi His tag (human)
T3 construct: also called Hu IL-2R α; CD25
T3 chain: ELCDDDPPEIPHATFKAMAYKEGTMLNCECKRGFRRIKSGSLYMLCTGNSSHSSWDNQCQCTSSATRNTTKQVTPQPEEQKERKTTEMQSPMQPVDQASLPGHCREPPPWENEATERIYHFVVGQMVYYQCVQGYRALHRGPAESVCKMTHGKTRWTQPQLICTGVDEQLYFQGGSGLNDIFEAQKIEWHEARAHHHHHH

T4: human high affinity IL-2 receptor (IL-2RA/CD25, IL-2RB/CD122, IL-2RG/CD132) on human peripheral blood cells (human, UniProt P01589 22-272; P14784 27-551; P31785 23-369)
T4 sequence (looked up) 1: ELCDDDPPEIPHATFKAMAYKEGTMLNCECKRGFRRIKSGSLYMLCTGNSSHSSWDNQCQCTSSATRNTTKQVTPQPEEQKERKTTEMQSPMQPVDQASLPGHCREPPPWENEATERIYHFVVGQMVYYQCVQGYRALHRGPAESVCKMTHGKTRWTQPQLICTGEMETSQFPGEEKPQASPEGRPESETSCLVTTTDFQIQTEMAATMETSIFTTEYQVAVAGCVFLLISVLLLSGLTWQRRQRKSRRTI
T4 sequence (looked up) 2: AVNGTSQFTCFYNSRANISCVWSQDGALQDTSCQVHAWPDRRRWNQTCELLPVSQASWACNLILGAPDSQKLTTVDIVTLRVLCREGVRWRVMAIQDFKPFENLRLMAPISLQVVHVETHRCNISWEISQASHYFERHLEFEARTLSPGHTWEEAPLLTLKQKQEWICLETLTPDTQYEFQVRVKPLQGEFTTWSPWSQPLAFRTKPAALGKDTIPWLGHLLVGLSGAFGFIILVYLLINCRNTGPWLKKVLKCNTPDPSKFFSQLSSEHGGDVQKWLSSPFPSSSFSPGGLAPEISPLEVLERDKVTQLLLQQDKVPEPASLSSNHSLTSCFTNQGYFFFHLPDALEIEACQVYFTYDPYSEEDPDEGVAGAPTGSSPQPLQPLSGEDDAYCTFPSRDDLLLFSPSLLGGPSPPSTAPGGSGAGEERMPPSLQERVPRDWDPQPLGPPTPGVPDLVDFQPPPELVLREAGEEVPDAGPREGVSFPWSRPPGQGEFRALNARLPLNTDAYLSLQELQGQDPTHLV
T4 sequence (looked up) 3: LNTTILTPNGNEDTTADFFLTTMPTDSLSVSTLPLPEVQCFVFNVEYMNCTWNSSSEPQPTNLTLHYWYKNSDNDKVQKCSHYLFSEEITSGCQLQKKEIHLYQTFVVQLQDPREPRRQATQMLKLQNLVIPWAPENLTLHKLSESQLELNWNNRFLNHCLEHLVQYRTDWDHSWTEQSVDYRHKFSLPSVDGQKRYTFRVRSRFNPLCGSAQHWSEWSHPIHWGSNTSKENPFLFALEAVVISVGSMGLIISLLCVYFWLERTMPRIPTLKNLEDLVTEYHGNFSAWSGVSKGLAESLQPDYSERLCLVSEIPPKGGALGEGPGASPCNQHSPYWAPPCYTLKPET

T5: cynomolgus high affinity IL-2 receptor (CD25 with the β and γ chains) on cynomolgus peripheral blood T cells (cynomolgus monkey, UniProt H6WS54 22-272; Q38J85 27-551; A0A2K5VGJ6 23-369)
T5 sequence 1: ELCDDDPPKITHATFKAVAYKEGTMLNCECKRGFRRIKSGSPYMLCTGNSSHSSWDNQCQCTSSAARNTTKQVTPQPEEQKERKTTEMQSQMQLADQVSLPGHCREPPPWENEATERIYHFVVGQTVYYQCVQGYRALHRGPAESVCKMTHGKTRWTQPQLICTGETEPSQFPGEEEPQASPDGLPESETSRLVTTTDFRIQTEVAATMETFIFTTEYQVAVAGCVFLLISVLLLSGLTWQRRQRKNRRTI
T5 sequence 2: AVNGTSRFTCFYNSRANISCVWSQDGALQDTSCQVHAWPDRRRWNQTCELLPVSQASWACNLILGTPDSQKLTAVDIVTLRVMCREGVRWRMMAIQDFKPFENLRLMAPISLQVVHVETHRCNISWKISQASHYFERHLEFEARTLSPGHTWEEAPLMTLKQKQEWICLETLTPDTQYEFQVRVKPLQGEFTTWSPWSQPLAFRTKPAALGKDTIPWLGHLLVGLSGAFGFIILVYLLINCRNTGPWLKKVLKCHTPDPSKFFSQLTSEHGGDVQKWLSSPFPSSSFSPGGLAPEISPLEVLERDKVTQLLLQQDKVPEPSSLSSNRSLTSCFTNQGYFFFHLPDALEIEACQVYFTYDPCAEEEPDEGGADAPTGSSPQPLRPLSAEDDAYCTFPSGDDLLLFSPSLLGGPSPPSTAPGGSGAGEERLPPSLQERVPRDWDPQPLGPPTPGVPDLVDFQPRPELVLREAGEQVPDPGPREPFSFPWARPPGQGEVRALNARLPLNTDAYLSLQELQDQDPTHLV
T5 sequence 3: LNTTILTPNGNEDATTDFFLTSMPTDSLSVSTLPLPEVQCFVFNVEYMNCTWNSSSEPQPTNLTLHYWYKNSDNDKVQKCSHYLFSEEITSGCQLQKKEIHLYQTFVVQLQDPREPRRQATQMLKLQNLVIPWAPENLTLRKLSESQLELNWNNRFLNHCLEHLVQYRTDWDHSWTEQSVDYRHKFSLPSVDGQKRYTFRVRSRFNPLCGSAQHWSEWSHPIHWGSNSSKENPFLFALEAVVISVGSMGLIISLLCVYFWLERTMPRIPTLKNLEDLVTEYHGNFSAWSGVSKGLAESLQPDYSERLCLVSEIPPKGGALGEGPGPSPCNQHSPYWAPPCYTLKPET


Tests used:
[1] = target: T1, cynomolgus IL-2R α-subunit, monomeric, …; assay: SPR Biacore T200, 25 C; IL-2R α-subunit amine-coupled on CM5 chip, fusion protein as analyte; steady state
Method: (§1) Affinities were determined by steady state analysis.

[2] = target: T2, murine IL-2R α-subunit, monomeric, with …; assay: as above
Method: as §1

[3] = target: T3, human IL-2R α-subunit, monomeric, with …; assay: as above
Method: as §1

[4] = target: T6, human IL-2R βγ heterodimer (IL-2R β-subunit-Fc(hole) / IL-2R γ-subunit-Fc(knob)) (human, biotinylated (site not stated)); assay: SPR Biacore T200, 25 C; biotinylated IL-2R βγ-Fc heterodimer on SA chip, fusion protein as analyte; kinetics, 1:1 fit
T6 construct: also called Hu IL-2R βγ; IL-2R βγ subunit-Fc fusion
Method: as §1

[5] = target: T7, cynomolgus IL-2R βγ heterodimer (IL-2R β-subunit-Fc(hole) / IL-2R γ-subunit-Fc(knob)) (cynomolgus, biotinylated (site not stated)); assay: as above
T7 construct: also called Cy IL-2R βγ
Method: as §1

[6] = target: T8, murine IL-2R βγ heterodimer (IL-2R β-subunit-Fc(hole) / IL-2R γ-subunit-Fc(knob)) (mouse, biotinylated (site not stated)); assay: as above
T8 construct: also called Mu IL-2R βγ
Method: as §1

[7] = target: T4, human high affinity IL-2 receptor …; assay: cell-based or functional assay
[8] = target: T5, cynomolgus high affinity IL-2 receptor …; assay: cell-based or functional assay

| Binder | Kd [1] | Kd [2] | Kd [3] | Kd [4] | Kd [5] | Kd [6] | ED50 for pSTAT5a activation, human memory Treg [7] | ED50 for pSTAT5a activation, human naïve Treg [7] | EC50 for pSTAT5a activation, cynomolgus CD4+ memory T effector [8] | EC50 for pSTAT5a activation, cynomolgus activated Treg [8] | EC50 for pSTAT5a activation, cynomolgus memory Treg [8] | EC50 for pSTAT5a activation, cynomolgus naïve Treg [8] |
| --- | --- | --- | --- | --- | --- | --- | --- | --- | --- | --- | --- | --- |
| DP47GS IgG-(IL-2 E95A)2 (other, also called DP47 IgG-(IL-2E95A)2; DPS47GS IgG-(IL-2E95A)2) heavy: [about 100 residues omitted here][about 120 residues omitted here][human IgG1 Fc with changes omitted here]GGGGSGGGGSGGGGSAPASSSTKKTQLQLEHLLLDLQMILNGINNYKNPKLTRMLTFKFYMPKKATELKHLQCLEEELKPLEEVLNLAQSKNFHLRPRDLISNINVIVLPLKGSETTFMCEYADETATIVEFLNRWITFAQSIISTLT light: [about 100 residues omitted here][about 100 residues omitted here] | 32 nM | 26 nM | 24 nM | 0.16 nM | 0.29 nM | 0.36 nM | – | – | – | – | – | – |
| DP47GS IgG-(IL-2 N88D)2 (other, also called DP47 IgG-(IL-2N88D)2; DP47GS IgG-(IL-2N88D2)2) heavy: [about 100 residues omitted here][about 120 residues omitted here][human IgG1 Fc with changes omitted here]GGGGSGGGGSGGGGSAPASSSTKKTQLQLEHLLLDLQMILNGINNYKNPKLTRMLTFKFYMPKKATELKHLQCLEEELKPLEEVLNLAQSKNFHLRPRDLISDINVIVLELKGSETTFMCEYADETATIVEFLNRWITFAQSIISTLT light: [about 100 residues omitted here][about 100 residues omitted here] | 30 nM | 25 nM | 22 nM | 0.24 nM | 0.57 nM | 2.1 nM | 11.4 pM | 17.7 pM | > 1000 ng/mL | 0.7 ng/mL | 1.1 ng/mL | 0.8 ng/mL |
